We go through 25 compounds from the supplement of paper PMC10037445.

Where “and” joins values, the source holds several entries; their conditions need not be identical. Identical values can stand only once. Whole data set: some 2,900 compounds, median “NF-kB SEAP reporter activity, fold change vs agonist alone” near 0.99, cut for the highest 2% near 2.6. The list shows a part of the results.

Test [1] deals with RAW-Dual. In words: NF-kB SEAP reporter activity, fold change vs agonist alone; cytotoxicity flag (confluency mask): not cytotoxic; higher = enhanced NF-kB activity. A digest of the protocol:
(§1)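 RAW-Dual macrophages (50,000 cells/well in DMEM, 384-well plates) received 50 nL of library stock by pin tool, then a PRR agonist 1 h later, and were kept at 37 °C, 5% CO2. After 20 hours, supernatant was read for IRF by QuantiLuc luminescence and for NF-κB by QuantiBlue absorbance at 620 nm. Reporter activity is fold change over agonist-alone wells. Cytotoxic wells had IncuCyte confluency below 70% of agonist controls in both mask sets.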

Test [2] has as its system RAW-Dual. In words: NF-kB SEAP reporter activity, fold change vs agonist alone; higher = enhanced NF-kB activity. A digest of the protocol: as §1
The test system of test [3] is RAW-Dual. The test can be described thus: NF-kB SEAP reporter activity, fold change vs agonist alone; cytotoxicity flag (confluency mask): cytotoxic (confluency <70% of control); higher = enhanced NF-kB activity. A digest of the protocol:
as §1

The mark [4] stands for this setting: agonist: ODN 1826 (TLR9) 0.5 ug/mL.
The mark [5] stands for this setting: agonist: Pam2CSK4 (TLR2/6) 0.1 ug/mL.
Where [6] appears, read: agonist: Pam3CSK4 (TLR2/1) 0.1 ug/mL.
Setting [7] is: library stock concentration (final ~1000-fold dilution): 10 mM, cytotoxicity flag (confluency mask): not cytotoxic, agonist: Imiquimod (TLR7) […].
Setting [8] is: library stock concentration (final ~1000-fold dilution): 10 mM, cytotoxicity flag (confluency mask): not cytotoxic, agonist: MPLA (TLR4) […].
The mark [9] stands for this setting: library stock concentration (final ~1000-fold dilution): 10 mM, cytotoxicity flag (confluency mask): cytotoxic (confluency <70% of control), agonist: Imiquimod (TLR7) […].
[10] abbreviates: library stock concentration (final ~1000-fold dilution): 10 mM, cytotoxicity flag (confluency mask): cytotoxic (confluency <70% of control), agonist: MPLA (TLR4) […].

As for `Cc1ncc(NC(=O)c2cccc(C(F)(F)F)c2)cc1-c1cnc(OC2CCOCC2)c(N2CCOCC2)c1` (library stock concentration (final ~1000-fold dilution): 10 mM), the “NF-kB SEAP reporter activity” value in the test with RAW-Dual [1] (agonist: LPS (TLR4) 0.1 ug/mL) came out at 1.31; with RAW-Dual [1] (setting [4]), 0.938; in the test with RAW-Dual [1] (setting [5]), 0.495; in the test with RAW-Dual [1] (setting [6]) it was 0.711.
In the case of `CCOc1cc2ncc(C#N)c(Nc3ccc(F)c(Cl)c3)c2cc1NC(=O)/C=C/CN(C)C` (library stock concentration (final ~1000-fold dilution): 10 mM), the “NF-kB SEAP reporter activity” value stood at 0.253 in the test on RAW-Dual [1] (agonist: LPS (TLR4) 0.1 ug/mL), 0.184 in the test on RAW-Dual [1] (setting [4]), 0.159 with RAW-Dual [1] (setting [5]) and 0.129 with RAW-Dual [1] (setting [6]).
With `CCOc1cc2ncc(C#N)c(Nc3ccc(F)c(Cl)c3)c2cc1NC(=O)/C=C/CN(C)C`, the “NF-kB SEAP reporter activity” value was found to be 0.272 in the test on RAW-Dual [2] (setting [7]) and 0.232 in the test with RAW-Dual [2] (setting [8]).
On to `Cc1cc(/C=C/C#N)cc(C)c1Nc1ccnc(Nc2ccc(C#N)cc2)n1` (library stock concentration (final ~1000-fold dilution): 10 mM), for which the “NF-kB SEAP reporter activity” value in the test with RAW-Dual [1] (agonist: LPS (TLR4) 0.1 ug/mL) was found to be 1.08; in the test with RAW-Dual [1] (setting [4]), 1.06; with RAW-Dual [1] (setting [5]), 0.19; in the test on RAW-Dual [1] (setting [6]), 0.429.
Turning to `Cc1cc(/C=C/C#N)cc(C)c1Nc1ccnc(Nc2ccc(C#N)cc2)n1`, the “NF-kB SEAP reporter activity” value in the test on RAW-Dual [2] (setting [7]) worked out at 0.87; with RAW-Dual [2] (setting [8]), 2.14.
`Oc1ccc(/C=C/c2cc(O)cc(O)c2)cc1` (library stock concentration (final ~1000-fold dilution): 10 mM): the “NF-kB SEAP reporter activity” value was found to be 2.17 with RAW-Dual [1] (agonist: LPS (TLR4) 0.1 ug/mL); 1.44 in the test on RAW-Dual [1] (setting [4]); 0.986 in the test on RAW-Dual [1] (setting [5]); 1.06 in the test on RAW-Dual [1] (setting [6]); 1.71 with RAW-Dual [3] (agonist: LPS (TLR4) 0.1 ug/mL); 1.4 in the test with RAW-Dual [3] (setting [4]). In addition, the “NF-kB SEAP reporter activity” value stood at 1.03 in the test on RAW-Dual [3] (setting [5]) and 1.31 in the test with RAW-Dual [3] (setting [6]).
As to `Oc1ccc(/C=C/c2cc(O)cc(O)c2)cc1`, the “NF-kB SEAP reporter activity” value with RAW-Dual [2] (setting [9]) was determined as 1.58; in the test with RAW-Dual [2] (setting [10]), 1.47; in the test with RAW-Dual [2] (setting [7]), 1.25; in the test with RAW-Dual [2] (setting [8]), 1.58.
As for `Cc1ncc(CCCN(C)C)cc1Nc1ncc2c(n1)-c1ccc(C(F)(F)F)cc1NC(=S)C2`, the entries for the “NF-kB SEAP reporter activity” value with RAW-Dual [2] (setting [9]) and in the test on RAW-Dual [2] (setting [10]) were 1.07 and 1.64, respectively.
With `Cc1ncc(CCCN(C)C)cc1Nc1ncc2c(n1)-c1ccc(C(F)(F)F)cc1NC(=S)C2` (library stock concentration (final ~1000-fold dilution): 10 mM), the “NF-kB SEAP reporter activity” value was 1.53 in the test with RAW-Dual [3] (agonist: LPS (TLR4) 0.1 ug/mL), 0.206 in the test on RAW-Dual [3] (setting [4]), 0.559 in the test with RAW-Dual [3] (setting [5]) and 0.528 in the test on RAW-Dual [3] (setting [6]).
Consider `CCOC(=O)C1=C(COCCN)NC(C)=C(C(=O)OC)C1c1ccccc1Cl` (stereo not given) (library stock concentration (final ~1000-fold dilution): 10 mM), for which the “NF-kB SEAP reporter activity” value was 2.23 and 2.05 in the test with RAW-Dual [3] (agonist: LPS (TLR4) 0.1 ug/mL); 0.736 and 1.01 in the test on RAW-Dual [3] (setting [4]); 0.785 and 0.751 in the test with RAW-Dual [3] (setting [5]); 0.888 and 1.41 with RAW-Dual [3] (setting [6]).
As to `COc1cc2c(cc1OC)C1Cc3ccc(OC)c(OC)c3CN1CC2` (stereo not given) (library stock concentration (final ~1000-fold dilution): 10 mM), the “NF-kB SEAP reporter activity” value in the test on RAW-Dual [1] (agonist: LPS (TLR4) 0.1 ug/mL) is 1.16; with RAW-Dual [1] (setting [4]), 1.06; in the test on RAW-Dual [1] (setting [5]), 0.911; with RAW-Dual [1] (setting [6]), 1.13.
On to `COc1cc2c(cc1OC)C1Cc3ccc(OC)c(OC)c3CN1CC2` (stereo not given), for which the “NF-kB SEAP reporter activity” value in the test with RAW-Dual [2] (setting [7]) was 0.958; in the test with RAW-Dual [2] (setting [8]) it was 0.945.
As for `COc1ccc(C2=NC(c3ccc(Cl)cc3)C(c3ccc(Cl)cc3)N2C(=O)N2CCNC(=O)C2)c(OC(C)C)c1` (stereo not given) (library stock concentration (final ~1000-fold dilution): 10 mM), the “NF-kB SEAP reporter activity” value was 0.454 and 0.807 in the test with RAW-Dual [1] (agonist: LPS (TLR4) 0.1 ug/mL); 0.472 and 0.712 with RAW-Dual [1] (setting [4]); 0.211 and 0.394 in the test with RAW-Dual [1] (setting [5]); 0.281 and 0.367 in the test on RAW-Dual [1] (setting [6]).
On to `CCN(CC)CCNC(=O)c1c(C)[nH]c(/C=C2\C(=O)Nc3ccc(F)cc32)c1C`, for which the results for the “NF-kB SEAP reporter activity” value with RAW-Dual [2] (setting [9]) and in the test on RAW-Dual [2] (setting [10]) were 0.949 and 0.803, respectively.
As to `CCN(CC)CCNC(=O)c1c(C)[nH]c(/C=C2\C(=O)Nc3ccc(F)cc32)c1C` (library stock concentration (final ~1000-fold dilution): 10 mM), the “NF-kB SEAP reporter activity” value in the test on RAW-Dual [3] (agonist: LPS (TLR4) 0.1 ug/mL) was 0.649; in the test with RAW-Dual [3] (setting [4]), 0.197; in the test on RAW-Dual [3] (setting [5]), 0.213; in the test with RAW-Dual [3] (setting [6]), 0.446.
For `O=C(NCc1ccccc1)c1csc(Nc2ccncn2)n1`, the results for the “NF-kB SEAP reporter activity” value with RAW-Dual [2] (setting [7]) and in the test on RAW-Dual [2] (setting [8]) were 0.928 and 0.935, respectively.
In the case of `O=C(NCc1ccccc1)c1csc(Nc2ccncn2)n1` (library stock concentration (final ~1000-fold dilution): 10 mM), the “NF-kB SEAP reporter activity” value in the test with RAW-Dual [1] (agonist: LPS (TLR4) 0.1 ug/mL) turned out to be 0.844; in the test with RAW-Dual [1] (setting [4]), 1.01; in the test with RAW-Dual [1] (setting [5]), 0.988; in the test with RAW-Dual [1] (setting [6]), 1.33.
In the case of `C=CC(=O)Nc1cc2c(Nc3ccc(F)c(Cl)c3)ncnc2cc1OCCCN1CCOCC1`, the “NF-kB SEAP reporter activity” value was 1.3 in the test with RAW-Dual [2] (library stock concentration (final ~1000-fold dilution): 2 mM, cytotoxicity flag (confluency mask): not cytotoxic, agonist: Imiquimod (TLR7) […]) and 1.18 in the test on RAW-Dual [2] (library stock concentration (final ~1000-fold dilution): 2 mM, cytotoxicity flag (confluency mask): not cytotoxic, agonist: MPLA (TLR4) […]).
Regarding `C=CC(=O)Nc1cc2c(Nc3ccc(F)c(Cl)c3)ncnc2cc1OCCCN1CCOCC1` (library stock concentration (final ~1000-fold dilution): 2 mM), the “NF-kB SEAP reporter activity” value in the test with RAW-Dual [1] (agonist: LPS (TLR4) 0.1 ug/mL) was determined as 1.53; in the test with RAW-Dual [1] (setting [4]), 1.05; in the test on RAW-Dual [1] (setting [5]), 1.34; with RAW-Dual [1] (setting [6]), 1.17.
On to `CNCc1ccc(-c2cc(-c3nc(-c4ccc(S(=O)(=O)C(C)C)cc4)cnc3N)on2)cc1`, for which the “NF-kB SEAP reporter activity” value in the test on RAW-Dual [2] (setting [7]) worked out at 0.858; in the test on RAW-Dual [2] (setting [8]), 0.98.
For `CNCc1ccc(-c2cc(-c3nc(-c4ccc(S(=O)(=O)C(C)C)cc4)cnc3N)on2)cc1` (library stock concentration (final ~1000-fold dilution): 10 mM), the “NF-kB SEAP reporter activity” value in the test with RAW-Dual [1] (agonist: LPS (TLR4) 0.1 ug/mL) was determined as 1.06; in the test with RAW-Dual [1] (setting [4]), 0.943; in the test on RAW-Dual [1] (setting [5]) it was 0.871; in the test with RAW-Dual [1] (setting [6]), 1.05.
As to `COC(=O)Nc1nc2ccc(C(=O)c3cccs3)cc2[nH]1` (library stock concentration (final ~1000-fold dilution): 10 mM), the “NF-kB SEAP reporter activity” value in the test with RAW-Dual [3] (setting [4]) came out at 3.14.
As for `COC(=O)Nc1nc2ccc(C(=O)c3cccs3)cc2[nH]1`, the “NF-kB SEAP reporter activity” value in the test on RAW-Dual [2] (setting [9]) came out at 2.68.
For the compound `Nc1ncc2[nH]cnc2n1` (library stock concentration (final ~1000-fold dilution): 1000 mM), the “NF-kB SEAP reporter activity” value came to 0.689 with RAW-Dual [1] (agonist: LPS (TLR4) 0.1 ug/mL), 1.03 with RAW-Dual [1] (setting [4]), 0.992 in the test on RAW-Dual [1] (setting [5]) and 0.971 in the test on RAW-Dual [1] (setting [6]).
On to `Nc1ncc2[nH]cnc2n1`, for which the “NF-kB SEAP reporter activity” value in the test with RAW-Dual [2] (library stock concentration (final ~1000-fold dilution): 1000 mM, cytotoxicity flag (confluency mask): not cytotoxic, agonist: Imiquimod (TLR7) […]) came to 0.724; in the test on RAW-Dual [2] (library stock concentration (final ~1000-fold dilution): 1000 mM, cytotoxicity flag (confluency mask): not cytotoxic, agonist: MPLA (TLR4) […]), 0.746.
